# Source: article PMC4336329 (PLoS ONE, 2015)
# In all, about 310,000 compounds went through this assay and about 14,000 (4.5%) showed an effect of 50% or more. Effects have a minus sign here. Some of the results follow.
# Biological target: human ether-à-go-go-related gene (hERG) potassium channel (human, UniProt Q12809)
# Experiment: primary screen, population patch clamp on CHO cells stably expressing hERG
# 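Further: peak tail current of the secondary pulse compared with the same well before compound.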
# Sequence of human ether-à-go-go-related gene (hERG) potassium channel (Q12809 whole entry, looked up): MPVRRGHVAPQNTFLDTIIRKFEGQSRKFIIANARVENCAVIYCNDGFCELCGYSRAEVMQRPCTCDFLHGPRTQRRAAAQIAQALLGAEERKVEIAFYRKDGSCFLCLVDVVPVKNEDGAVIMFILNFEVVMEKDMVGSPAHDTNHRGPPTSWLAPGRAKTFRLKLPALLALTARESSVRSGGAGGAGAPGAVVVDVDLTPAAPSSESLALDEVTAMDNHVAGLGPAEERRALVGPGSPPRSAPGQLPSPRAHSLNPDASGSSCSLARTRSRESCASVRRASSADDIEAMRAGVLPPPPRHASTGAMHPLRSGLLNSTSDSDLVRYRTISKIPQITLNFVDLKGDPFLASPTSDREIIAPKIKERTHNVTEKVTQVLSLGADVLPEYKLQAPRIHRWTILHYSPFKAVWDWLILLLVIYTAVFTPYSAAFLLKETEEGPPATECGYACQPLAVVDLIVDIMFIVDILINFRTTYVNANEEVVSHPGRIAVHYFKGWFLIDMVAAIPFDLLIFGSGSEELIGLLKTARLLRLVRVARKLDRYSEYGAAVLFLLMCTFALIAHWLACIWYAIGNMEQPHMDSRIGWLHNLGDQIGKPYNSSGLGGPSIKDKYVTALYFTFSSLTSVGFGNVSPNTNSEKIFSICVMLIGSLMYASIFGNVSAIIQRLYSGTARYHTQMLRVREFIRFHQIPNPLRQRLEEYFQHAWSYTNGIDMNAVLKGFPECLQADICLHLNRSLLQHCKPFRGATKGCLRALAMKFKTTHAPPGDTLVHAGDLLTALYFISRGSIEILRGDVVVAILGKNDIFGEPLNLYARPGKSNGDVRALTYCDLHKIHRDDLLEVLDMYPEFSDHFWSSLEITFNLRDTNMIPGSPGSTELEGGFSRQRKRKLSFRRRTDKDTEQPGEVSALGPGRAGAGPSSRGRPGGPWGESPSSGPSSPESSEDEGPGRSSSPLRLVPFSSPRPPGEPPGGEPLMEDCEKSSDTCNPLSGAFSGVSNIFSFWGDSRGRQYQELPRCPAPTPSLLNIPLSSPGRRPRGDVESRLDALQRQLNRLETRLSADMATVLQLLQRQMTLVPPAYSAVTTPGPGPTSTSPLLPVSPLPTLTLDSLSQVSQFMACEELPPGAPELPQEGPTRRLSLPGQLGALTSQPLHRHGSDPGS
row,Structure (SMILES),"hERG current change (%, negative = inhibition) at 10uM [%]"
1,CC(C)(C)n1nc2c(c1NC(=O)c1c(F)cccc1F)CS(=O)(=O)C2,8.85
2,Fc1ccc(-c2csc3ncnc(N4CCN(c5ccccc5)CC4)c23)cc1,16.2
3,Cc1ccc(CNC(=O)/C(C#N)=C/c2ccc(C)s2)cc1,7.38
4,COc1ccc(OCC(=O)N2CCC(n3nccc3NC(=O)C3CC3)CC2)cc1,1.44
5,COc1cc(NC(=O)CN2C(=O)NC(c3ccccc3)(c3ccccc3)C2=O)cc(OC)c1,5.79
6,O=C(CN1CCN(C(=O)c2ccco2)CC1)Nc1ccc(Cl)c(S(=O)(=O)N2CCOCC2)c1,-25.6
7,CC(C)COc1cccc(C(=O)N2CCN(C(=O)c3ccco3)CC2)c1,-43.6
8,Cl.OC(COc1ccc2c(c1)OCO2)CN1CCN(c2ccc(F)cc2)CC1 (centres unmarked),-66.1
9,O=C(CCNC(=O)c1ccccc1Cl)Nc1nc2ccccc2s1,1.57
10,COc1ccc(/C=N/NC(=O)c2cc(C)on2)c2ccccc12,1.7
11,Cc1cc2c(sc3ccccc32)c(C)n1.Cl,-11.3
12,Cc1cc(C)c(S(=O)(=O)NCC(c2cccnc2)N2CCN(Cc3ccccc3)CC2)c(C)c1 (centres unmarked),-69.5
13,CCCCn1c(N)c(N(CCOC)C(=O)c2cc(-c3ccccc3)nc3ccccc23)c(=O)[nH]c1=O,-3.37
14,CCNc1nc(SCC(=O)OC)nc(N(C)C)n1,-1.26
15,Cc1ccc(S(=O)(=O)Nc2ccc3c(c2)nc(CCN2CCOCC2)n3C)cc1,-17.2
16,Cc1ccc(CNC(=O)NC23CC4CC(CC(C4)C2)C3)cc1,7.24
17,NS(=O)(=O)c1ccc(CCNC(=O)CNC(=O)COc2ccccc2)cc1,15.7
18,CN1CCN(S(=O)(=O)c2cccc(C(=O)Oc3cccc(Br)c3)c2)CC1,-26.9
19,CN(C)/C=N/c1nc2nccc(-c3cccnc3)n2n1,-2.98

row,Structure (SMILES),"hERG current change (%, negative = inhibition) at 10uM [%]"
1,C/C(=N/OC(=O)C1CC1)c1cc(-c2ccc(Cl)cc2)no1,10.7
2,CC(=O)c1ccc(N2CCN(C(=O)c3ccc(Cn4c(=S)[nH]c5ccc(N6CCOCC6)cc5c4=O)cc3)CC2)cc1,3.26
3,COc1ccc(C(=O)COC(=O)Cn2nnc3ccccc32)cc1Br,-2.3
4,CCOC(=O)/C(Sc1nc(-c2ccccc2)cc(-c2ccccc2)c1C#N)=C(\C)O,15
5,COc1cc2c(c(OC)c1OC)CC(=O)N(C)CC2,5.56
6,O=C(CN1C(=O)CSc2ccccc21)N1CCc2ccccc21,1.76
7,CCOc1ccc(-c2nnn(CCC(=O)O)n2)cc1OC,6.95
8,CCOc1ccccc1Nc1nc2ccccc2n2cnnc12,8.87
9,C#CCSc1nnc(-c2sc(-c3ccccc3)nc2C)n1C,-26.9
10,COc1cc(CN(C)CCc2ccccc2)ccc1OCc1ccccc1,-72
11,COc1ccc(C2CC(=O)CC(=O)C2n2cncn2)cc1 (centres unmarked),2.96
12,COc1ccc(N2CCN(C(=O)Cn3nnc(-c4cccs4)n3)CC2)cc1,13
13,CC(=O)NC1C(Oc2ccccc2C)OC2COC(c3ccco3)OC2C1O (centres unmarked),3.59
14,CCOC(=O)[C@@H]1[C@H]2COc3ccccc3[C@@H]2N2C(=O)N(c3cccc(Cl)c3)C(=O)[C@@]12C,-3.18
15,Cc1cccc(-n2nc(C)c3c(C(=O)O)cc(-c4cccs4)nc32)c1,9.13
16,Cc1ccc(OC(=O)c2cncc(Br)c2)c(C)c1,16
17,C=CCNC(=O)c1oc2ccc(S(=O)(=O)N(CC)CC)cc2c1C,-8.87
18,O=C(N/N=C/c1ccc(Br)o1)c1ccc2c(c1)OCCO2,-8.89
19,Cc1onc(-c2c(F)cccc2Cl)c1C(=O)N1CCN(S(C)(=O)=O)CC1,-0.786

row,Structure (SMILES),"hERG current change (%, negative = inhibition) at 10uM [%]"
1,O=C1C(C2=NC(c3ccccn3)C3C(=O)N(c4ccc(Cl)cc4Cl)C(=O)C23)=C(O)c2ccccc21 (centres unmarked),-4.11
2,COc1ccccc1CNC(=O)CCC(=O)N1CC(C)Sc2ccccc21 (centres unmarked),-11.9
3,O=C(NC(=S)NCc1ccco1)c1cccc(Cl)c1,5.4
4,O=C(NCc1ccccc1Cl)C(=O)NCC1OCCN1S(=O)(=O)c1cccs1 (centres unmarked),-15
5,Cc1ncc([N+](=O)[O-])n1S(=O)(=O)c1cc(Br)ccc1Br,14
6,Cc1cc(C(=O)OCC(=O)Nc2c(Cl)cccc2C(F)(F)F)c(C)o1,10.7
7,Cc1nn(CC(=O)Nc2ccc(S(=O)(=O)N(C)C)cc2)c(C)c1[N+](=O)[O-],-5.89
8,COc1ccc(NC(=O)N2c3ccc(OC)cc3C(C)=CC2(C)C)cc1,20.1
9,CC(=O)c1ccc(N(CC(=O)NCc2ccc3c(c2)OCO3)C(=O)c2csnn2)cc1,-20.5
10,CCOc1cccc(CN2CCC(Oc3ccc(C(=O)N4CCCC4)cc3)CC2)c1,-27.4
11,Cc1nnsc1C(=O)N/N=C/c1c(F)cccc1Cl,12.8
12,O=C(N/N=C/c1cccs1)c1ccc(-n2cccc2)cc1,21.4
13,CC(OC(=O)/C=C/c1cccs1)C(=O)NC1CCCCC1C (centres unmarked),12.2
14,COc1ccc(S(=O)(=O)NCCc2ccc(F)cc2)cc1,-8.11
15,O=C(O)C(=O)O.OC(CNCc1ccc(Cl)cc1)COc1ccccc1 (centres unmarked),-41.9
16,COc1cccc(NC(=O)CSc2nnnn2C(C)C)c1,2.64
17,Cn1cccc1Cc1nnc(SCC(=O)NCC2CCCO2)n1C (centres unmarked),11.8
18,CN(Cc1nccs1)C(=O)C1CCC(=O)N(CCc2ccc(Cl)cc2)C1 (centres unmarked),-81.5
